# Data as given in the supplement of paper PMC10369915.
# The list shows a part of the results. No stated cut-off is given here; in the data, active = 3.2 or more and inactive = the rest. Only a few entries rise above the background.
# B1: SLAF1_HUMAN_327 (peptide)
# chain: ETNSITVYASVTLPE
# B2: SLAF5_HUMAN_279_YA (peptide)
# chain: AASKKTIYTAIMASR
# B3: SLAF5_HUMAN_341 (peptide)
# chain: KPPGTSSYEIVIGGG
# B4: SLAF6_HUMAN_309 (peptide)
# chain: ENDTITIYSTINHSK
# B5: SNCA_HUMAN_133 (peptide)
# chain: EMPSEEGYQDYEPEA
# B6: SNCA_HUMAN_136 (peptide)
# chain: SEEGYQDYEPEAGGG
# B7: SNCB_HUMAN_127_YA (peptide)
# chain: EDPPQEEYQEAEPEA
# B8: AVIL_HUMAN_758 (peptide)
# chain: SNDSEPKYYPIAVLL
# B9: SNX9_HUMAN_239 (peptide)
# chain: IPIIVGDYGPMWVYP
# B10: SNX9_HUMAN_239_YA (peptide)
# chain: IPIIVGDYGPMWVAP
# B11: SPRE2_HUMAN_231 (peptide)
# chain: WMTGYEDYRHAPVRG
# B12: AVIL_HUMAN_758_YA (peptide)
# chain: SNDSEPKYAPIAVLL
# B13: SPTB2_HUMAN_1805_YA (peptide)
# chain: TQILAASYELHKFAH
# B14: SPTC1_HUMAN_164 (peptide)
# chain: KTEEAIIYSYGFATI
# B15: SQSTM_HUMAN_148 (peptide)
# chain: KCSVCPDYDLCSVCE
# B16: SRBS1_HUMAN_654_YA (peptide)
# chain: SETPGAIYSSNFHAV
# B17: SRC_HUMAN_338_YA (peptide)
# chain: VVSEEPIYIVTEAMS
# B18: SRC_HUMAN_439 (peptide)
# chain: TAPEAALYGRFTIKS
# B19: SRC8_HUMAN_486 (peptide)
# chain: YPAEDSTYDEYENDL
# Target: SHP2 C-SH2 domain E139D
# Test: enrichment score (SH2-bound / input frequency) (ratio); bacterial display of known human phosphotyrosine sites (pTyr-Var adds point mutants) read by sequencing; higher = stronger binding; tyrosines were phosphorylated by kinases first
# Details: peptide library: Human pTyr
# 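Further: displayed peptides selected on beads carrying the immobilized SH2 domain, with library peptides lacking any tyrosine serving as negative controls.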
row,Binder,enrichment score
1,B1,inactive: 1.61
2,B2,active: 4.43
3,B3,inactive: 0.881
4,B4,active: 6.35
5,B5,inactive: 1.17
6,B6,inactive: 0.978
7,B7,inactive: 0.992
8,B8,inactive: 1.31
9,B9,inactive: 1.07
10,B10,inactive: 0.68
11,B11,inactive: 1.12
12,B12,inactive: 1.37
13,B13,inactive: 1.02
14,B14,inactive: 1.41
15,B15,inactive: 0.669
16,B16,inactive: 0.746
17,B17,inactive: 0.692
18,B18,inactive: 1.68
19,B19,inactive: 0.847

# Target: SHP2 C-SH2 domain wild-type
# Test: as above
# Details: peptide library: Human pTyr
row,Binder,enrichment score
1,B1,inactive: 2.54
2,B2,active: 7.9
3,B3,inactive: 0.865
4,B4,active: 10.9
5,B5,inactive: 0.906
6,B6,inactive: 0.998
7,B7,inactive: 0.895
8,B8,inactive: 1.03
9,B9,inactive: 1.04
10,B10,inactive: 0.864
11,B11,inactive: 1.18
12,B12,inactive: 1.08
13,B13,inactive: 0.936
14,B14,inactive: 1.44
15,B15,inactive: 0.658
16,B16,inactive: 0.587
17,B17,inactive: 0.664
18,B18,inactive: 0.793
19,B19,inactive: 1.46

# Target: SHP2 N-SH2 domain L43F
# Test: as above
# Details: peptide library: Human pTyr
row,Binder,enrichment score
1,B1,inactive: 1.3
2,B2,inactive: 1.51
3,B3,inactive: 0.923
4,B4,inactive: 1.05
5,B5,inactive: 1.23
6,B6,inactive: 1.13
7,B7,inactive: 0.916
8,B8,inactive: 1.09
9,B9,inactive: 1.14
10,B10,inactive: 0.711
11,B11,inactive: 1.03
12,B12,inactive: 1.28
13,B13,inactive: 0.883
14,B14,inactive: 1.41
15,B15,inactive: 0.642
16,B16,inactive: 0.642
17,B17,inactive: 0.765
18,B18,inactive: 1.01
19,B19,inactive: 0.828

# Target: SHP2 N-SH2 domain T42A
# Test: as above
# Details: peptide library: Human pTyr
row,Binder,enrichment score
1,B1,inactive: 1.6
2,B2,active: 3.37
3,B3,inactive: 0.727
4,B4,inactive: 1.33
5,B5,inactive: 1.12
6,B6,inactive: 0.893
7,B7,inactive: 1.02
8,B8,inactive: 1.12
9,B9,inactive: 1.38
10,B10,inactive: 0.628
11,B11,inactive: 1.06
12,B12,inactive: 1.11
13,B13,inactive: 0.863
14,B14,inactive: 1.13
15,B15,inactive: 0.649
16,B16,inactive: 0.679
17,B17,inactive: 1.02
18,B18,inactive: 1.09
19,B19,inactive: 1.36

# Target: SHP2 N-SH2 domain T52S
# Test: as above
# Details: peptide library: Human pTyr
row,Binder,enrichment score
1,B1,inactive: 1.43
2,B2,inactive: 1.24
3,B3,inactive: 0.882
4,B4,inactive: 1.11
5,B5,inactive: 0.918
6,B6,inactive: 1.09
7,B7,inactive: 1.26
8,B8,inactive: 1.42
9,B9,inactive: 1.04
10,B10,inactive: 0.838
11,B11,inactive: 1.4
12,B12,inactive: 1.3
13,B13,inactive: 0.925
14,B14,inactive: 1.61
15,B15,inactive: 0.801
16,B16,inactive: 0.551
17,B17,inactive: 0.644
18,B18,inactive: 1.18
19,B19,inactive: 1.09

# Target: SHP2 N-SH2 domain wild-type
# Test: as above
# Details: peptide library: Human pTyr
row,Binder,enrichment score
1,B1,inactive: 1.68
2,B2,inactive: 1.17
3,B3,inactive: 0.851
4,B4,inactive: 1.22
5,B5,inactive: 1.32
6,B6,inactive: 1.08
7,B7,inactive: 1.16
8,B8,inactive: 1.4
9,B9,inactive: 1.13
10,B10,inactive: 0.612
11,B11,inactive: 1.62
12,B12,inactive: 1.25
13,B13,inactive: 1.02
14,B14,inactive: 1.87
15,B15,inactive: 0.772
16,B16,inactive: 0.579
17,B17,inactive: 0.632
18,B18,inactive: 0.916
19,B19,inactive: 1.61
